Results on six molecules are retold here after paper PMC12136788.

T1: UNK ZnF1-3 (human, UniProt Q9C0B0 31-174)
T1 sequence: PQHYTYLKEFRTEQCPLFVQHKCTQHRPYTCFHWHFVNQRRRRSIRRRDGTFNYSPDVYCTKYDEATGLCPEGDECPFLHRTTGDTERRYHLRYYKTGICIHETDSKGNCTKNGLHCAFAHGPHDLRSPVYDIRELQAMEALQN

B1: chr1:151372964:151372965:+_ENSG00000159377_ENST00000290541|hu_mus|motif|central (ssRNA)
RNA: GGGAGUUCUACAGUCCGACGAUCCUUGGAGCGGCGGCUGUACAUGGCUCUUGUCAACCAUGAAUGAAUAGCUCUAGGGCGGUAGCUGUGUCCAUCUCCCAACAGCUCUUCAUCAAUCACCAUCUGGCCGAGAACUUGUUUCAACAACAGAGGAUUGAGCAUCA
B2: chr3:119217614:119217615:+_ENSG00000113845_ENST00000264244|hu_hu|motif|central (ssRNA)
RNA: GGGAGUUCUACAGUCCGACGAUCCUCUACAGAGAAAGCUCCGCGGUGCCGGUGGCGGCACCUCCAUGGCCUUCUCUCGACCGGCGGACAAACUUGAGCGCUCAGGACUUCAAGUCCUCGCGGACGUGCCGCGGGAGAGCGUAACAACAGAGGAUUGAGCAUCA
B3: chr15:69561275:69561276:+_ENSG00000138604_ENST00000261858|hu_hu|motif|central (ssRNA)
RNA: GGGAGUUCUACAGUCCGACGAUCUUCUUUUAAGUCAUACAGCCCAAUUAAAGAAUACAUAAAGCCAUUUAAAACAAAAGAGCGGGGUGUGGUUGGAUAUUCUUCAUACCAGUCAUGUUUAUUCAUAAACACAGCUUUAACUCCCAACAGAGGAUUGAGCAUCA
B4: chr11:46405157:46405158:+_ENSG00000110492_ENST00000395566|hu_hu|hu_hu_hu_mus_False|68_78 (ssRNA)
RNA: GGGAGUUCUACAGUCCGACGAUCCCCUCCCCACUUUGGGCACUUGGUGUGGGCGUGAAGGCAGGGCAUGAUUGAUUAGAGCUGACAGGAAGACAAAAGGCACUGGUGGGUUAUAUCUUGGGCCUGUGGGAGAGGAGGGCUCCGCAACAGAGGAUUGAGCAUCA
B5: chr5:69958400:69958401:+_ENSMUSG00000029208_ENSMUST00000154728|mus_hu|motif|central (ssRNA)
RNA: GGGAGUUCUACAGUCCGACGAUCGUCAUAAAAAUCUACCACAAUUUCAUUCAAAGGAAAGAGAUAUUUAAGCAUAACUCGGUUUUGAUCAAUAAAUAUCAUAUUCUUCUGAACUGCUCUUCGAGCCUCGCAAAGCAUCAUUAUCAACAGAGGAUUGAGCAUCA
B6: 90058019_90058139_173_3pUTR_ENSMUSG00000032363_ENSMUST00000113059|mouse|control|control (ssRNA)
RNA: GGGAGUUCUACAGUCCGACGAUCGAGGACGCGGGACGCCAGAGCGCACAGGAUCAGGAGGAGACUCGGACCACGGUGCAUGGCCCGGACGGGGUGGCCGCAGGACGACCCCUGUGCACUCCUUCGUCUACGCCGUUGCGUCCCCAACAGAGGAUUGAGCAUCA

Some of the results follow.

In the test the target is T1, UNK ZnF1-3. Description: nsRBNS (natural sequence RNA bind-n-seq); RBNS binding buffer (assumed for nsRBNS): 25 mM Tris pH 7.5, 150 mM KCl, 3 mM MgCl2, 0.01% Triton X-100, 500 ug/ml BSA, 20 U/ml SUPERase-In, 4 C; UNK is unkempt and MSI1 is Musashi-1; names of the RNAs are library labels; protein concentration not given here; high values mean tight binding.
The molecule B1 registered a binding signal of 0.704 enrichment R.

B2 registered a binding signal of 0.271 enrichment R.

The molecule B3 registered a binding signal of 1.41 enrichment R.

For the molecule B4, the binding signal was 2.07 enrichment R.

Molecule B5 displayed a binding signal of 0.78 enrichment R.

B6 displayed a binding signal of 0.26 enrichment R.
